In article PMC12136788:
This is one part of the list.

T1: UNK ZnF1-6 (called full-length) (human, UniProt Q9C0B0 30-357)
T1 sequence: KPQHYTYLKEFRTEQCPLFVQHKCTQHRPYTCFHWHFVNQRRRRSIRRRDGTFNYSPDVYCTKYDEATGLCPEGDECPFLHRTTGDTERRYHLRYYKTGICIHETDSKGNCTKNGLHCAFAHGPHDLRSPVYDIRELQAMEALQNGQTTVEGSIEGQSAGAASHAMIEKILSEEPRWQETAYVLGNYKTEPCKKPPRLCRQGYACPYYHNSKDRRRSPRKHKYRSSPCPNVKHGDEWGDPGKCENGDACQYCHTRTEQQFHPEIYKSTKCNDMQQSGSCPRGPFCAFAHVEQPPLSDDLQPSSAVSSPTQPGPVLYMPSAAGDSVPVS

B1: chr10:73917138:73917420:+|3pUTR|ENSG00000122861|msi1|total|mutant (ssRNA)
RNA: GGGAGUUCUACAGUCCGACGAUCGGAAUGUAUUAUUCUGCAGCAUGACCUGUGACCAGCACUGUCUCAGUUUCACUUUCACACCGAUGUCCCUUUCUUGGCCAGUUAUCCCUUCCUUUCCGCCCCGUUCAUCCAAUCCUCACUCAACAGAGGAUUGAGCAUCA
B2: chr13:110149936:110150037:-|3pUTR|ENSG00000187498|msi1|total|mutant (ssRNA)
RNA: GGGAGUUCUACAGUCCGACGAUCUUCUUGUAUUAUAAUUAAUUUUCUACCCCCAGAGAUAAAUGUUUGUUUAUAUCACUGUCCCGCUGUUUCAAAAUUCCGGUCCCUUGGUCUGUACAAAUAACCGCAAUGUAAAAAUGGUUUCAACAGAGGAUUGAGCAUCA
B3: chr13:28712679:28713550:-|CDS|ENSG00000139508|control|control|control (ssRNA)
RNA: GGGAGUUCUACAGUCCGACGAUCUGAAGUUUUUAUAGGUUAUGGAUCAGCUUUGGGUAGUGCCUCUUUUUUGACUAGUUUCCUAGGAAUAUGGCUUUUUUCUUAUUGUAUGGAAGAUAUUCAUAUGGCCUUCAUUGGGAUUUUCAACAGAGGAUUGAGCAUCA
B4: chr21:34788506:34788607:-|3pUTR|ENSG00000159216|msi1|total|mutant (ssRNA)
RNA: GGGAGUUCUACAGUCCGACGAUCUUGUUAAUGCCUAUAACUUUUUUUCAAUUUUUUUGUGUGUGUUUCUAAGGACUUUUUCUCCGGUUUGCUAAAUACUGCCGGGAAAAAAAUGCUUCUUUCUACUUUGUUUAUUUCCGACUUCAACAGAGGAUUGAGCAUCA
B5: chr3:31579932:31580050:+|CDS|ENSG00000163527|unk|FALSE|unique (ssRNA)
RNA: GGGAGUUCUACAGUCCGACGAUCUACAUCUAUAUCUACUUUCCUGCUUACAAGAGAACUUUGGAACCAAGGAGCAGGACUUUUAGCUGCUUGUUUUAUUGCUAUUGUACCAGGCUACAUAUCUCGGUCAGUAGCUGGAUCCUUCAACAGAGGAUUGAGCAUCA
B6: ENSG00000102230:stop:overlap|stop_codon|ENSG00000102230|stop_codon|NA|stop_codon (ssRNA)
RNA: GGGAGUUCUACAGUCCGACGAUCUGCAGGCCUUAUCCCCGAAGCAGAGCCCUCUGAAGAGUUGGGCGAGGUGCAGAGACUUCUAGCUGGACAACCUACACAAACCUUAGCGUCUAGAGUCACUCUAACCUUGCUAAGGAAGGACAACAGAGGAUUGAGCAUCA
B7: chr19:38409054:38410039:-|three_prime_utr|ENSG00000171777|control|control|control (ssRNA)
RNA: GGGAGUUCUACAGUCCGACGAUCCUCCCUUCCCCCAGUCAGUCCUGAGUCCUGCCGUCAGACUCUGGCAGGGCUCCCAGAGGUAGGCCUCCAGAGGCAUCCGCCUUCCCAUCCACACUGCCUUUAGUGGUACGUCCGUCAUCUCAACAGAGGAUUGAGCAUCA
B8: chr12:64421256:64421371:+|CDS|ENSG00000184575|unk|total|mutant (ssRNA)
RNA: GGGAGUUCUACAGUCCGACGAUCGUUGACUUCCUGGCCAGAUUUUCUAAGUUGGUAAAUGGAAUGGGACAGUCAUUGACCGUCCGUUGGAGUAAAUUAAUUAAGAAUGGGGAUAUUAAGAAUGCUCAAGAGGCACUACAAGCUCAACAGAGGAUUGAGCAUCA
B9: chr15:64675409:64675510:+|CDS|ENSG00000180357|msi1|FALSE|bound_elsewhere (ssRNA)
RNA: GGGAGUUCUACAGUCCGACGAUCAACCAACAGCCCUGCAUACUCUGACAUCUCUGAUGCUGGGGAGGAUGGGGAGGGCAAGGUAGACAGUGUCAAAUCAAAGGACGCCGAACAGUUGGUUAAAGAAGGGGCUAAGAAAACUCUCAACAGAGGAUUGAGCAUCA
B10: chr2:43888187:43888297:-|3pUTR|ENSG00000138095|unk|total|mutant (ssRNA)
RNA: GGGAGUUCUACAGUCCGACGAUCAAAAUGUUAUUCCUUUAUUUAAGAUUCACUUAUCCGUCUGCUGUUUCUCUGAAAAAUUUCCGAGCCCGGUACCGUGACCGUGAACUUUCUAACGCAUAAUAUUCUGUGAUACAGCCAUUCCAACAGAGGAUUGAGCAUCA
B11: chr1:113764432:113764533:-|3pUTR|ENSG00000081019|msi1|total|mutant (ssRNA)
RNA: GGGAGUUCUACAGUCCGACGAUCAAAAUAUUCUGAAACCGGUUAAAUCUUAUAUAAAUAUUACUUUGUGCAAUAUUGUUGUGCCGUUAAAUGCAUAUCCGCAAAGUACCGAGGUCACUGUGUAAACCGACCGAAAAGUAACCACAACAGAGGAUUGAGCAUCA
B12: ENSG00000124766:be:win_1801|3pUTR|ENSG00000124766|bound_else_gene|NA|bound_elsewhere_windowed (ssRNA)
RNA: GGGAGUUCUACAGUCCGACGAUCGAGCUUCCGGACUUGUCUGCACCCCCAGCAAGAAGGCGAGUUAGUUUUCUAGAGACUUGAAGGAGUCUCCCCCUUCCUGCAUCACCACCUUGGUUUUGUUUUAUUUUGCUUCUUGGUCAACAACAGAGGAUUGAGCAUCA
B13: chr10:32268825:32268926:-|3pUTR|ENSG00000120616|unk|total|mutant (ssRNA)
RNA: GGGAGUUCUACAGUCCGACGAUCUGGGGACUUGACAGCAAUGCUCAUCUCUCAUGCUUCAAUUUUUCUUUUCUUACUGUUAACCGGAAAAAAAUCAACAUCUGUAAAUUAAGAAUACAGCAAUUAUCUGUACAGUACUGCAUACAACAGAGGAUUGAGCAUCA
B14: chr5:72990507:72990614:+|CDS|ENSG00000157107|unk|total|mutant (ssRNA)
RNA: GGGAGUUCUACAGUCCGACGAUCGUAUGGGAUGUAUUCAAAACAUCUACAGAGAAAUCCGCAAAUUGUCACUUGGAUCUUGUCCGAAAAUUACAAGAAUUAAUAAAGGAAGUUCAGAAGUAUGGAGAAGAACAAGUAAAGUCUCAACAGAGGAUUGAGCAUCA
B15: chr13:106490488:106490589:-|3pUTR|ENSG00000125266|msi1|total|mutant (ssRNA)
RNA: GGGAGUUCUACAGUCCGACGAUCAGCCAUCAGAAGUUACUUUCCGGAUGGGGGAGAGGGGCGAGAAGGGGAAAAAUGGGAAACCGUCUGAUUUUAAUGAAAUCAAAUGUAUGUAUCAUCAGUUGGCUACGUUUUGGUUCUAUGCAACAGAGGAUUGAGCAUCA
B16: chr13:98915392:98915499:-|CDS|ENSG00000088387|unk|total|mutant (ssRNA)
RNA: GGGAGUUCUACAGUCCGACGAUCUCAUUUCAGAACAACAAAGUCAGGCGUUUUGCUUUUGAGCUCAAGAUGCAGGACAAAAGCCGUUAUCUCUUGGCAGCAGACAGUGAAGUGGAAAUGGAAGAAUGGAUCACAAUUCUAAAUCAACAGAGGAUUGAGCAUCA
B17: chr11:118254921:118255022:-|3pUTR|ENSG00000149573|unk|total|mutant (ssRNA)
RNA: GGGAGUUCUACAGUCCGACGAUCACAGCCUCAUUAUUAAGGUCUUAUUUAAUUUCAGAGUGUAAAUUUUUUCAAGUGCUCAUCCGGUUUUAUAAACAAGAAGCUACAUUUUUGCCCUUAAGACACUACUUACAGUGUUAUGACCAACAGAGGAUUGAGCAUCA
B18: chr1:108222463:108223704:-|three_prime_utr|ENSG00000196427|control|control|control (ssRNA)
RNA: GGGAGUUCUACAGUCCGACGAUCACUAUGCUCCUUUGAUUUGAGAAGCCACAUUCCAUCCCCCUCCAAUUGUGAUCAAUACCUAGGGAGACCAAUGCCCAGAUGGACAAAUAGCAUUGACCGGCGUUAGCCCUGUUUCUCAAUCAACAGAGGAUUGAGCAUCA
B19: ENSG00000198589:be:win_351|CDS|ENSG00000198589|bound_else_gene|NA|bound_elsewhere_windowed (ssRNA)
RNA: GGGAGUUCUACAGUCCGACGAUCUCUGAAGAAAAGCAUACGGAAUCUUCAAGUCUGCACUGAAGUAGGCCUUGUUGAAAAAGUGCUUGGGAAAAUUGAAAAAGUUGACAAUAUGAUAGCAGAUCUUUUGGUUGACAUGUUGGGCAACAGAGGAUUGAGCAUCA
B20: chrX:101268252:101269192:-|three_prime_utr|ENSG00000102387|control|control|control (ssRNA)
RNA: GGGAGUUCUACAGUCCGACGAUCGUUGAAUCAGUUAUAUUUAUCUGUACCUUCUUUGCUACUUAAAAUAUGCUCACAGUUUGUAGUCAUGUAGAAAAGGCCAGUAUAAAAAUGUAGUAGACUUAAAGACCCCACUCGACCAUGCAACAGAGGAUUGAGCAUCA
B21: chr22:21445082:21445183:+|CDS|ENSG00000169635|msi1|FALSE|bound_elsewhere (ssRNA)
RNA: GGGAGUUCUACAGUCCGACGAUCCCUGUGUGACGUCAUCAUCAUGGUGGAGAACUCCAUCUUCCGGGCCCACAAGAACGUCCUAGCCGCCAGCAGCAUCUAUUUCAAGUCCCUGGUCCUGCACGACAACCUCAUCAACCUGGACAACAGAGGAUUGAGCAUCA
B22: chr7:27153715:27154908:-|three_prime_utr|ENSG00000122592|control|control|control (ssRNA)
RNA: GGGAGUUCUACAGUCCGACGAUCAAAAGACACCCCCAACCCCAGGCCAGCCGGCCCUGCUCUGGCGCGUCCAAAAUACUACCUAGCACAGGCCUCUGCUCGAGGCACCCCCAAACUACCUAUGUAUCCAGCCCCAGAGGGCCUCAACAGAGGAUUGAGCAUCA

Molecular target: T1, UNK ZnF1-6 (called full-length)
Test: nsRBNS (natural sequence RNA bind-n-seq); RBNS binding buffer (assumed for nsRBNS): 25 mM Tris pH 7.5, 150 mM KCl, 3 mM MgCl2, 0.01% Triton X-100, 500 ug/ml BSA, 20 U/ml SUPERase-In, 4 C; UNK is unkempt and MSI1 is Musashi-1; names of the RNAs are library labels; protein concentration not given here; high values mean tight binding

Binder | binding signal
B1 | 0.837 enrichment R
B2 | 1.55 enrichment R
B3 | 1.1 enrichment R
B4 | 1.35 enrichment R
B5 | 0.508 enrichment R
B6 | 0.736 enrichment R
B7 | 1.01 enrichment R
B8 | 0.682 enrichment R
B9 | 0.674 enrichment R
B10 | 0.441 enrichment R
B11 | 0.639 enrichment R
B12 | 1.02 enrichment R
B13 | 0.524 enrichment R
B14 | 0.43 enrichment R
B15 | 0.93 enrichment R
B16 | 0.466 enrichment R
B17 | 0.694 enrichment R
B18 | 0.526 enrichment R
B19 | 0.291 enrichment R
B20 | 0.707 enrichment R
B21 | 0.806 enrichment R
B22 | 1.45 enrichment R
